# According to the supplement of paper PMC8728848:
# Some of the results follow.
# B1: rMpL (Macrolepiota procera) (protein)
# chain: MSTQVSSGRTYKITNVIAGTVIDLSGEDNKSIIGYPYHSGKNQQWTFNWTGKAWTLRSASSGSYLGIEGTPAGGTRLVAVNDPFEWHIWRDEANENAFRIFVPFTNYNLDLSGYGDTTPGTPVQLWWTWEGLHQTWTIDRP
# What was measured:
# Experiment in all cases: glycan array binding signal (z-score within array); higher = stronger binding
# Details in all cases: glycan notation: IUPAC condensed, linker removed
# [1] = target: Neu5Ac(a2-6)Gal(b1-3)GlcNAc(b1-3)[Gal(b1-4)GlcNAc(b1-6)]Gal(b1-4)Glc
# Outline: (§1)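 Arrays were curated from the Consortium for Functional Glycomics database, 3228 in total, and kept only where the protein sequence was available. Binding is expressed as a within-array Z-score. This score was averaged across arrays of the same protein sequence at different concentrations or buffers and across linkers, and negative values can be read as non-binding.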
# Neu5Ac(a2-6)Gal(b1-4)Glc = target: Neu5Ac(a2-6)Gal(b1-4)Glc
# Outline: as §1
# [2] = target: Neu5Ac(a2-6)Gal(b1-4)GlcNAc
# Outline: as §1
# [3] = target: Neu5Ac(a2-6)Gal(b1-4)GlcNAc(b1-2)Man
# Outline: as §1
# [4] = target: Neu5Ac(a2-6)Gal(b1-4)GlcNAc(b1-2)Man(a1-3)Man(b1-4)GlcNAc(b1-4)GlcNAc
# Outline: as §1
# [5] = target: Neu5Ac(a2-6)Gal(b1-4)GlcNAc(b1-2)Man(a1-3)[Gal(b1-4)GlcNAc(b1-2)Man(a1-6)]Man(b1-4)GlcNAc(b1-4)GlcNAc
# Outline: as §1
# [6] = target: Neu5Ac(a2-6)Gal(b1-4)GlcNAc(b1-2)Man(a1-3)[GlcNAc(b1-2)Man(a1-6)]Man(b1-4)GlcNAc(b1-4)GlcNAc
# Outline: as §1
# [7] = target: Neu5Ac(a2-6)Gal(b1-4)GlcNAc(b1-2)Man(a1-3)[GlcNAc(b1-4)][Neu5Ac(a2-6)Gal(b1-4)GlcNAc(b1-2)Man(a1-6)]Man(b1-4)GlcNAc(b1-4)GlcNAc
# Outline: as §1
# [8] = target: Neu5Ac(a2-6)Gal(b1-4)GlcNAc(b1-2)Man(a1-3)[Man(a1-6)]Man(b1-4)GlcNAc(b1-4)GlcNAc
# Outline: as §1
# [9] = target: Neu5Ac(a2-6)Gal(b1-4)GlcNAc(b1-2)Man(a1-3)[Neu5Ac(a2-3)Gal(b1-4)GlcNAc(b1-2)Man(a1-6)]Man(b1-4)GlcNAc(b1-4)GlcNAc
# Outline: as §1
# [10] = target: Neu5Ac(a2-6)Gal(b1-4)GlcNAc(b1-2)Man(a1-3)[Neu5Ac(a2-6)Gal(b1-4)GlcNAc(b1-2)Man(a1-6)]Man(b1-4)GlcNAc(b1-4)GlcNAc
# Outline: as §1
# [11] = target: Neu5Ac(a2-6)Gal(b1-4)GlcNAc(b1-2)Man(a1-3)[Neu5Ac(a2-6)Gal(b1-4)GlcNAc(b1-2)Man(a1-6)]Man(b1-4)GlcNAc(b1-4)[Fuc(a1-6)]GlcNAc
# Outline: as §1
# [12] = target: Neu5Ac(a2-6)Gal(b1-4)GlcNAc(b1-2)Man(a1-6)Man(b1-4)GlcNAc(b1-4)GlcNAc
# Outline: as §1
# [13] = target: Neu5Ac(a2-6)Gal(b1-4)GlcNAc(b1-2)Man(a1-6)[Gal(b1-4)GlcNAc(b1-2)Man(a1-3)]Man(b1-4)GlcNAc(b1-4)GlcNAc
# Outline: as §1
# [14] = target: Neu5Ac(a2-6)Gal(b1-4)GlcNAc(b1-2)Man(a1-6)[GlcNAc(b1-2)Man(a1-3)]Man(b1-4)GlcNAc(b1-4)GlcNAc
# Outline: as §1
# [15] = target: Neu5Ac(a2-6)Gal(b1-4)GlcNAc(b1-2)Man(a1-6)[Man(a1-3)]Man(b1-4)GlcNAc(b1-4)GlcNAc
# Outline: as §1
# [16] = target: Neu5Ac(a2-6)Gal(b1-4)GlcNAc(b1-2)[Neu5Ac(a2-6)Gal(b1-4)GlcNAc(b1-4)]Man(a1-3)[GlcNAc(b1-4)][Neu5Ac(a2-6)Gal(b1-4)GlcNAc(b1-2)[Neu5Ac(a2-6)Gal(b1-4)GlcNAc(b1-6)]Man(a1-6)]Man(b1-4)GlcNAc(b1-4)GlcNAc
# Outline: as §1
# [17] = target: Neu5Ac(a2-6)Gal(b1-4)GlcNAc(b1-2)[Neu5Ac(a2-6)Gal(b1-4)GlcNAc(b1-4)]Man(a1-3)[GlcNAc(b1-4)][Neu5Ac(a2-6)Gal(b1-4)GlcNAc(b1-4)Man(a1-6)]Man(b1-4)GlcNAc(b1-4)GlcNAc
# Outline: as §1
# [18] = target: Neu5Ac(a2-6)Gal(b1-4)GlcNAc(b1-2)[Neu5Ac(a2-6)Gal(b1-4)GlcNAc(b1-6)]Man(a1-6)[Neu5Ac(a2-6)Gal(b1-4)GlcNAc(b1-2)Man(a1-3)][GlcNAc(b1-4)]Man(b1-4)GlcNAc(b1-4)GlcNAc
# Outline: as §1
# [19] = target: Neu5Ac(a2-6)Gal(b1-4)GlcNAc(b1-3)Gal(b1-3)GlcNAc
# Outline: as §1
# [20] = target: Neu5Ac(a2-6)Gal(b1-4)GlcNAc(b1-3)Gal(b1-4)GlcNAc
# Outline: as §1
# [21] = target: Neu5Ac(a2-6)Gal(b1-4)GlcNAc(b1-3)Gal(b1-4)GlcNAc(b1-2)Man(a1-3)[Neu5Ac(a2-6)Gal(b1-4)GlcNAc(b1-3)Gal(b1-4)GlcNAc(b1-2)Man(a1-6)]GalNAc
# Outline: as §1
# [22] = target: Neu5Ac(a2-6)Gal(b1-4)GlcNAc(b1-3)Gal(b1-4)GlcNAc(b1-3)Gal(b1-4)GlcNAc
# Outline: as §1
# [23] = target: Neu5Ac(a2-6)Gal(b1-4)GlcNAc(b1-3)Gal(b1-4)GlcNAc(b1-3)Gal(b1-4)GlcNAc(b1-2)Man(a1-3)[Neu5Ac(a2-6)Gal(b1-4)GlcNAc(b1-3)Gal(b1-4)GlcNAc(b1-3)Gal(b1-4)GlcNAc(b1-2)Man(a1-6)]GalNAc
# Outline: as §1
# [24] = target: Neu5Ac(a2-6)Gal(b1-4)GlcNAc(b1-3)Gal(b1-4)GlcNAc(b1-3)GalNAc
# Outline: as §1
# [25] = target: Neu5Ac(a2-6)Gal(b1-4)GlcNAc(b1-3)Gal(b1-4)GlcNAc(b1-3)[Neu5Ac(a2-6)Gal(b1-4)GlcNAc(b1-3)Gal(b1-4)GlcNAc(b1-6)]GalNAc
# Outline: as §1
# [26] = target: Neu5Ac(a2-6)Gal(b1-4)GlcNAc(b1-3)Gal(b1-4)GlcNAc(b1-6)[Gal(b1-3)]GalNAc
# Outline: as §1
# [27] = target: Neu5Ac(a2-6)Gal(b1-4)GlcNAc(b1-3)Gal(b1-4)[Fuc(a1-3)]GlcNAc(b1-3)Gal(b1-4)[Fuc(a1-3)]GlcNAc
# Outline: as §1
# [28] = target: Neu5Ac(a2-6)Gal(b1-4)GlcNAc(b1-3)GalNAc
# Outline: as §1
# [29] = target: Neu5Ac(a2-6)Gal(b1-4)GlcNAc(b1-3)[Neu5Ac(a2-6)Gal(b1-4)GlcNAc(b1-6)]GalNAc
# Outline: as §1
# [30] = target: Neu5Ac(a2-6)Gal(b1-4)GlcNAc(b1-6)GalNAc
# Outline: as §1
# [31] = target: Neu5Ac(a2-6)Gal(b1-4)GlcNAc(b1-6)[Gal(b1-3)GlcNAc(b1-3)]Gal(b1-4)Glc
# Outline: as §1
# [32] = target: Neu5Ac(a2-6)Gal(b1-4)GlcNAc(b1-6)[Gal(b1-3)]GalNAc
# Outline: as §1
# [33] = target: Neu5Ac(a2-6)Gal(b1-4)GlcNAc6S
# Outline: as §1
# Neu5Ac(a2-6)GalNAc = target: Neu5Ac(a2-6)GalNAc
# Outline: as §1
binder,measurement,setting,value
B1,glycan array binding signal (z-score),[1],0.035
same,glycan array binding signal (z-score),Neu5Ac(a2-6)Gal(b1-4)Glc,-0.348
same,glycan array binding signal (z-score),[2],-0.358
same,glycan array binding signal (z-score),[3],-0.296
same,glycan array binding signal (z-score),[4],-0.29
same,glycan array binding signal (z-score),[5],-0.187
same,glycan array binding signal (z-score),[6],-0.317
same,glycan array binding signal (z-score),[7],-0.34
same,glycan array binding signal (z-score),[8],-0.264
same,glycan array binding signal (z-score),[9],-0.342
same,glycan array binding signal (z-score),[10],-0.285
same,glycan array binding signal (z-score),[11],-0.168
same,glycan array binding signal (z-score),[12],-0.322
same,glycan array binding signal (z-score),[13],0.028
same,glycan array binding signal (z-score),[14],-0.332
same,glycan array binding signal (z-score),[15],-0.279
same,glycan array binding signal (z-score),[16],-0.304
same,glycan array binding signal (z-score),[17],-0.31
same,glycan array binding signal (z-score),[18],-0.314
same,glycan array binding signal (z-score),[19],0.728
same,glycan array binding signal (z-score),[20],-0.363
same,glycan array binding signal (z-score),[21],-0.05
same,glycan array binding signal (z-score),[22],-0.333
same,glycan array binding signal (z-score),[23],0.331
same,glycan array binding signal (z-score),[24],-0.334
same,glycan array binding signal (z-score),[25],0.44
same,glycan array binding signal (z-score),[26],-0.15
same,glycan array binding signal (z-score),[27],-0.344
same,glycan array binding signal (z-score),[28],-0.295
same,glycan array binding signal (z-score),[29],-0.241
same,glycan array binding signal (z-score),[30],-0.237
same,glycan array binding signal (z-score),[31],0.103
same,glycan array binding signal (z-score),[32],-0.264
same,glycan array binding signal (z-score),[33],-0.365
same,glycan array binding signal (z-score),Neu5Ac(a2-6)GalNAc,-0.37
